Over roughly 33,000 sequences, “E-score (-0.5 to 0.5)” has its median near -0.011; the highest 2% begin near 0.28. The list shows a part of the results.
target: T1, Gcr1 (UniProt P07261); assay: PBM E-score (8-mer binding enrichment) (E-score (-0.5 to 0.5)); higher = stronger / more preferred TF binding; most listed sequences are background and not binding sites; settings: protein concentration: 100 nM; construct: GST-full length
T1 sequence: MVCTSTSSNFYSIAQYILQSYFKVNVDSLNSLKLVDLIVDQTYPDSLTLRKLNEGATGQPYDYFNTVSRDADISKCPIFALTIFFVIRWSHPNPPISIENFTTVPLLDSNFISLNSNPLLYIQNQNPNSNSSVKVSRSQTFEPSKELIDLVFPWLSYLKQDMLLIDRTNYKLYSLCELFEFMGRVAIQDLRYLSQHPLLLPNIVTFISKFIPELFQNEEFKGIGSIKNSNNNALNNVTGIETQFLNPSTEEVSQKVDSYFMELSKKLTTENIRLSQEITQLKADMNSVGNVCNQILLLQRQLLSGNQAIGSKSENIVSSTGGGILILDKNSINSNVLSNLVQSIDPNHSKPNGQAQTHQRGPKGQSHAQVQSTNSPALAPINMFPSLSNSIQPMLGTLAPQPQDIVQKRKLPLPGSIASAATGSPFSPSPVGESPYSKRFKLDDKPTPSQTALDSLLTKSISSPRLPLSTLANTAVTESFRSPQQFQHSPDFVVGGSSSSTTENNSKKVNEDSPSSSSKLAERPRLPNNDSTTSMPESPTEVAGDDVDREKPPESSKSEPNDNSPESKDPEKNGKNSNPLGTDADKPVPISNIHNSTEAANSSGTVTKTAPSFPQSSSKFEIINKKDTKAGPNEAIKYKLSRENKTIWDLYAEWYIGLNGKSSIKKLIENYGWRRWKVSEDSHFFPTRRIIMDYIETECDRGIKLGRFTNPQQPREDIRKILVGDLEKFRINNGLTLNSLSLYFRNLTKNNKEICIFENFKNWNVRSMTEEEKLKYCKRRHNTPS
Description: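 Universal 'all 10-mer' protein binding microarrays (Agilent AMADID 015681) probed with GST-tagged S. cerevisiae TFs (full-length or DBD) made by in vitro transcription/translation (PURExpress), about 100-200 nM. Bound TF was detected with fluorescent anti-GST. Each ungapped 8-mer (which stands for itself and its reverse complement) is scored by the PBM enrichment score (E-score), a modified Wilcoxon-Mann-Whitney statistic from -0.5 to +0.5, computed with the Universal PBM Analysis Suite. Scale: above 0.35 generally sequence-specific binding.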

Row | Sequence | PBM E-score
1 | AACGGGAC | -0.207
2 | CGCGCGCA | -0.104
3 | ATCCTCGC | 0.0994
4 | GCACGTCC | -0.00197
5 | ATAGCGAA | -0.0252
6 | GTCACAGA | 0.00024
7 | CCCTCTAA | 0.0336
8 | CAACTCGC | -0.199
9 | TGAGAGAA | -0.00362
10 | AGACGGTC | -0.274
11 | CACGTACG | 0.0426
12 | GCACCGGA | 0.124
13 | CCAATACC | 0.205
14 | CTGTTTTA | 0.0786
15 | CAACATGC | -0.0266
16 | CGAGTGGA | 0.233
17 | AAAAGGTC | -0.0982
18 | CTTATTTA | 0.13
19 | TAGGCCGA | -0.231
20 | CTTGTCCA | -0.0626
21 | CAACAATC | 0.0112
22 | ACCTAGAT | 0.0487
23 | CGTCCGTA | 0.0514
24 | AGTTCCAC | 0.0854
25 | TATATGGA | 0.038

Row | Sequence | PBM E-score
26 | ACGTGTTC | -0.0263
27 | TACGCTAA | 0.0157
28 | CAAAAAAA | 0.245
29 | CATCAGCG | 0.0936
30 | AGATTCAC | -0.00764
31 | AACCAGCC | 0.0606
32 | CGGCGCGC | 0.193
33 | ATCCAAAC | -0.03
34 | CGCTCGGA | 0.0151
35 | TAGTACCA | 0.0841
36 | CAGTTATA | 0.0145
37 | TCTGTGAA | 0.0273
38 | CCCGATAA | -0.0166
39 | GTATTGCA | -0.0525
40 | TATATTCA | 0.0612
41 | CCAAGTGG | 0.0532
42 | CAATAACG | 0.0827
43 | CCGTAGAC | -0.1
44 | ACCTTCCT | 0.0319
45 | AACCCCTC | -0.0647
46 | AACTAGCC | 0.00513
47 | GAAGCGGC | 0.158
48 | GACGTGAA | 0.12
49 | AGGGGGGC | -0.255
50 | ACGGCCCC | -0.0114

Row | Sequence | PBM E-score
51 | ACAGCAAG | 0.0255
52 | CAGGAACA | -0.125
53 | CTAGACAA | -0.119
54 | CTAGTCGC | -0.0178
55 | AAAACTTA | 0.0958
56 | AGCCAAGG | -0.00699
57 | CCTTGCCC | -0.0706
58 | AATTTCAG | 0.0844
59 | AATAACCG | 0.0851
60 | ATTTACAA | 0.0394
61 | TCCGTCAA | -0.0254
62 | ATAACTTG | 0.128
63 | GCGGAACC | 0.341
64 | ACGCTACA | 0.0449
65 | GGTCCGAA | 0.0333
66 | ACACCAAC | 0.085
67 | TGTTGTAA | 0.184
68 | AGACTAGA | -0.0708
69 | TACATATA | 0.153
70 | CCATCTTC | 0.00634
71 | TCACAGGA | 0.117
72 | ATGGCAGA | -0.00984
73 | ATTGATCG | 0.0313
74 | AAACTGCG | -0.0517
75 | ATGCGCGG | -0.231

Row | Sequence | PBM E-score
76 | GTTTGTTA | 0.074
77 | CACACCAC | 0.142
78 | AATCCTTC | -0.217
79 | TACGTTCA | -0.174
80 | CAACGTGA | 0.0644
81 | ATGATGCG | 0.0591
82 | CCGCGCCG | -0.0482
83 | CCCGAGTC | -0.219
84 | CCAGCAAC | 0.227
85 | CGGATTTA | -0.0267
86 | AGACATAC | -0.107
87 | AGAGGCAT | 0.223
88 | ATCGTAGC | -0.0134
89 | GACAACTA | -0.0831
90 | AAGCATAA | 0.172
91 | GATGCTAA | 0.372
92 | ACTCCGGC | 0.0577
93 | ACGGCGAC | -0.00151
94 | AATTTAGG | 0.206
95 | AGCGTCCG | 0.165
96 | AGTGTGAA | -0.11
97 | GAATGTTA | 0.0174
98 | AAAGAGAC | 0.0252
99 | ATGCATCG | -0.0288
100 | GTCATGTA | 0.137

Row | Sequence | PBM E-score
101 | GCGATCAA | 0.0409
102 | TCAATCCA | -0.128
103 | ATGGGTTG | 0.0709
104 | CTAAGCAG | -0.0109
105 | GCACCCAA | 0.303
106 | CTACCCTC | -0.224
107 | ACCAGCAA | 0.0307
108 | ACGAGCCT | -0.0689
109 | AGCTAGAC | 0.113
110 | AGCGTATC | 0.184
111 | CGTAGGCC | -0.185
112 | GCCCTCGA | -0.0995
113 | GATTGGCA | 0.0933
114 | GGACTTAC | -0.113
115 | CCGGTCCG | -0.0945
116 | CCCGTCTC | -0.0723
117 | TCCGAGGA | 0.174
118 | ATGAGATA | 0.104
119 | CCTCCTGA | 0.0439
120 | CAGTCGTC | -0.224
121 | CATCGAGC | -0.165
122 | CTCCGGTC | -0.171
123 | GAATGGCC | -0.116
124 | AGCGTCTC | 0.22
125 | AAGGACCG | -0.192

Row | Sequence | PBM E-score
126 | CAGCGTAG | 0.0413
127 | CATGTCGG | -0.16
128 | GACACGTA | -0.0389
129 | GGCTCACA | -0.0642
130 | AGTCCTAG | -0.167
131 | CCTCCGTA | -0.0539
132 | GAGTATGC | -0.0589
133 | CTACTTAA | 0.195
134 | CATTCAAG | -0.0372
135 | AAGCGTTG | -0.2
136 | AGGAGAGC | -0.137
137 | CTATAGCA | 0.041
138 | CGGAGCCC | 0.218
139 | AGAAGACA | -0.0574
140 | TATTTCCA | 0.171
141 | CGTGGTAC | -0.227
142 | AAAAATGG | 0.145
143 | TCCATACA | 0.171
144 | ACTTGACC | -0.198
145 | ACCGTGAC | -0.182
146 | CCGGGCAG | 0.0407
147 | CAGCCGCG | 0.0333
148 | ATACAGTA | -0.112
149 | GCGGAAGC | 0.314
150 | GTGATAGA | -0.133

Row | Sequence | PBM E-score
151 | GCAATGAA | -0.116
152 | ACTTCACT | -0.0657
153 | AGTTGGCA | 0.107
154 | AATAAGGA | -0.0501
155 | ATTTAAAG | 0.198
156 | GGCTTAGA | -0.00607
157 | AACTCCAG | -0.0562
158 | CTGCTCAA | -0.00432
159 | GGCAAGCA | -0.155
160 | ACTGTGAC | -0.0646
161 | AACCATAG | -0.00302
162 | CATTCCAC | 0.0952
163 | CCGCGATC | -0.141
164 | CTGGGACC | 0.0278
165 | ACACACGT | 0.023
166 | AGCAAAAA | 0.126
167 | TGGACTAA | -0.0217
168 | AGTCCTAA | -0.0226
169 | TAACACGA | 0.0569
170 | CTTAGTTA | 0.0275
171 | ACAGTCGG | -0.0818
172 | GGATGACA | 0.155

— the supplement of paper PMC3334620
